{
  "source": "PubChem BioAssay AID1476",
  "about": "(National Center for Advancing Translational Sciences (NCATS), 2009)",
  "note": "“And” between values parts separate entries of the source, which are not always exact repeats. Identical values can stand only once. Screen size: about 200,000 compounds; about 4,500 (2.2%) were called active. The inconclusive results got no clear call from the source; some entries with a clear call stand among them for comparison. Calls follow the shape of the dose curve; as a rule, active = well fitted inhibition curve with a large enough effect; inconclusive = small, poorly fitted or top-dose-only effect, or effect the other way; inactive = flat fitted curve, though single readings scatter. Where the call is inconclusive, the potency comes from a doubtful curve fit. Potency is read from the fitted curve at half-maximal effect; tags tell the direction and shape of the fitted curve.",
  "data": [
    {"target": "Cruzipain (Trypanosoma cruzi) (UniProt P25779)", "sequence (P25779 whole entry, looked up)": "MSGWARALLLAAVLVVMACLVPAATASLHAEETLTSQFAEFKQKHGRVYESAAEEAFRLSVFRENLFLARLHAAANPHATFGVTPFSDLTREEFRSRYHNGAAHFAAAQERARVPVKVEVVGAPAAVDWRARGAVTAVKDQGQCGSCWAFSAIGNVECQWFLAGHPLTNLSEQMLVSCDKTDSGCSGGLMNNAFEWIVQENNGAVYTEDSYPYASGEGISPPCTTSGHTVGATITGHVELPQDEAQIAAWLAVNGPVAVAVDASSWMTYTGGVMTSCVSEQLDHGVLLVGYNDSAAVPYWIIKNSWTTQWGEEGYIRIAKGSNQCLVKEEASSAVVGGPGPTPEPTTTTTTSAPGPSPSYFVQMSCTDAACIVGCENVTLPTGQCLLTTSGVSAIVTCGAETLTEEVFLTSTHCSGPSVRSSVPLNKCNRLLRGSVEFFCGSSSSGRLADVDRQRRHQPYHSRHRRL", "assay": "qHTS Assay for Promiscuous and Specific Inhibitors of Cruzain (without detergent); also: nearly all actives have a fitted effect of over 40% in size;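 as to max response, negative = inhibition: plate controls were enzyme without inhibitor for no effect and buffer without enzyme for full effect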", "conditions": "purified cruzain, Z-FR-AMC fluorescence, no detergent", "procedure,_shortened": "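Detergent-free condition (0.00005% Triton X-100) in acetate buffer pH 5.5 with DTT. 1.5 nM enzyme and compound were pre-mixed 15 min, then 2 uM Z-FR-AMC substrate added; reaction progress from fluorescence change between first and third reads (60 s).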", "values": [
      {"compound": "COc1ccc(C(=O)Nc2ccc(S(=O)(=O)Nc3cc(C)nc(C)n3)cc2)c(OC)c1", "Potency": "inconclusive: 31.6 µM [activator, single point]"},
      {"compound": "CCOC(=O)c1c(CSc2ccccc2)n(C)c2cc(Br)c(OCC(O)CNC(CO)(CO)CO)cc12", "note": "(stereo not given)", "Potency": "inconclusive: 31.6 µM [inhibitor, single point]"},
      {"compound": "COc1cc(OC)cc(C(=O)Nc2nnc3n2CCS3)c1", "max response, negative = inhibition": "inactive: -1.55%"},
      {"compound": "Cc1ccc(C(=O)Nc2nc(-c3nnn(-c4cccc(C(F)(F)F)c4)c3C)ns2)cc1", "Potency": "inconclusive: 25.1 µM [inhibitor, single point]"},
      {"compound": "COc1cc(/C=C(/C#N)c2nc3ccccc3[nH]2)ccc1OCc1ccc(C(=O)O)o1", "Potency": "inconclusive: 39.8 µM [activator, single point]"},
      {"compound": "O=c1[nH]c(CN2CCc3ccccc32)nc2scc(-c3cccs3)c12", "Potency": "active: 10 µM"},
      {"compound": "COc1ccc(-c2nn(-c3ccccc3)cc2/C=N/NC(=O)c2ccc(Br)o2)cc1", "Potency": "active: 25.1 µM"},
      {"compound": "CCOC(=O)c1nc(Nc2ccc(C(=O)OC)cc2)c2ccccc2n1", "Potency": "inconclusive: 39.8 µM [activator, single point]"},
      {"compound": "O=c1cc(-c2ccccc2Cl)oc2c(Br)ccc(O)c12", "Potency": "inconclusive: 50.1 µM [inhibitor, single point]"},
      {"compound": "CCN(CC)C(=O)CSc1nc2ccccc2c(=O)n1-c1ccccc1OC", "max response, negative = inhibition": "inactive: 6.39%"},
      {"compound": "COc1cc(CC(=O)Nc2ccc(Cl)c(C(F)(F)F)c2)cc(OC)c1OC", "Potency": "inconclusive: 39.8 µM [activator, single point]"},
      {"compound": "COc1ccc(OC)c(NC(=O)CN(C)S(=O)(=O)c2ccc3nc(C)sc3c2)c1", "Potency": "inconclusive: 39.8 µM [activator, single point]"},
      {"compound": "CCOC(=O)N1CCC(N2C(=O)c3ccccc3C2Nc2cc(C(=O)OC)cc(C(=O)OC)c2)CC1", "note": "(stereo not given)", "Potency": "inconclusive: 31.6 µM [activator, single point]"},
      {"compound": "Cc1cn2c(=O)c(S(=O)(=O)N3CCN(c4cc(Cl)ccc4C)CC3)c(C)nc2s1", "max response, negative = inhibition": "inactive: -2.46%"},
      {"compound": "O=C(NCCc1ccc(Cl)cc1)C1COc2ccccc2C1", "note": "(stereo not given)", "max response, negative = inhibition": "inactive: 9.76%"},
      {"compound": "CN(C)c1ccc(/C=C/C(=O)c2ccc(C(C)(C)C)cc2)cc1[N+](=O)[O-]", "Potency": "inconclusive: 31.6 µM [inhibitor, single point]"},
      {"compound": "COc1cc(/C=C2/SC(N)=NC2=O)ccc1Oc1ccc([N+](=O)[O-])cc1[N+](=O)[O-]", "Potency": "inconclusive: 31.6 µM [inhibitor, single point]"},
      {"compound": "CC(=O)Nc1ccc(S(=O)(=O)Oc2ccc(C(=S)N3CCCCC3)cc2)cc1", "Potency": "inconclusive: 39.8 µM [activator, single point]"},
      {"compound": "COc1ccccc1NC(=O)CSc1oc(-c2ccccc2)nc1S(=O)(=O)c1ccc(C)cc1", "Potency": "inconclusive: 5.01 µM [inhibitor, single point]"},
      {"compound": "CNC(=O)c1c(NC(=O)Cc2coc3ccc(C)cc23)sc2c1CCCC2", "Potency": "inconclusive: 39.8 µM [inhibitor, single point]"},
      {"compound": "CCc1nn(CC(=O)Nc2c(C)cccc2C)c(=O)c2cc3sccc3n12", "max response, negative = inhibition": "inactive: 2.65%"},
      {"compound": "O=C(CSc1nc2c([nH]c3ccccc32)c(=O)n1-c1ccccc1)Nc1ccc(Cl)c(Cl)c1", "Potency": "active: 12.6 µM"},
      {"compound": "COc1cc(NC(=O)N2CCC3(CC2)Nc2ccccc2-n2cccc23)cc(OC)c1OC", "Potency": "inconclusive: 25.1 µM [activator, single point]"},
      {"compound": "CCOc1ccc(NC(=O)Cn2nnc(C(=O)NCCc3ccccc3)c2N)cc1", "max response, negative = inhibition": "inactive: -18.7%"},
      {"compound": "COc1ccc(-c2csc(N(CCc3ccccc3)C(=O)COc3ccccc3)n2)cc1", "Potency": "active: 12.6 µM"},
      {"compound": "Nc1c(C(=O)c2ccccc2)sc(Nc2ccccc2)c1S(=O)(=O)c1ccccc1", "Potency": "active: 7.94 µM"},
      {"compound": "CCOc1ccc2nc(NC(=O)c3ccc(OC)c(S(=O)(=O)N4CCOCC4)c3)sc2c1", "Potency": "inconclusive: 31.6 µM [activator, partial curve]"},
      {"compound": "CCOC(=O)C1C2C=CC3(CN(c4cccc(Cl)c4)C(=O)C13)O2", "note": "(stereo not given)", "Potency": "inconclusive: 31.6 µM [inhibitor, single point]"},
      {"compound": "FC(F)Oc1ccccc1NC(=S)NCc1ccco1", "max response, negative = inhibition": "inactive: 0.556%"},
      {"compound": "Cn1cc(/C=C2\\SC(=S)N(NC(=O)c3ccccc3)C2=O)c2ccccc21", "Potency": "inconclusive: 31.6 µM [inhibitor, single point]"},
      {"compound": "Cc1cccc(Cc2c(C)nc3nc(SCC(=O)NCc4ccc(F)cc4)nn3c2C)c1", "max response, negative = inhibition": "inactive: 4.09%"},
      {"compound": "COc1ccc(O)c(/C=N/Nc2nc(Nc3ccccc3)nc(-n3nc(C)cc3C)n2)c1", "Potency": "inconclusive: 31.6 µM [activator, partial curve]"},
      {"compound": "N#Cc1cc2c(=O)n3ccccc3nc2n(CCCN2CCOCC2)c1=O", "Potency": "inconclusive: 6.31 µM [activator, single point]"},
      {"compound": "Cc1cccc(CCNC(=O)c2ccc3c(c2)nc2n3CCCCC2)c1", "max response, negative = inhibition": "inactive: -6.14%"},
      {"compound": "Cc1nc2c(-c3ccc(F)cc3)c(C)nn2c(C)c1CCC(=O)N1CCN(c2ccc(F)cc2)CC1", "Potency": "inconclusive: 20 µM [activator, partial curve] and inconclusive: 15.8 µM [activator, partial curve]"},
      {"compound": "COC(=O)c1c(NC(=O)c2nc(SC)ncc2Cl)sc2c1CCCC2", "max response, negative = inhibition": "inactive: -14.8%"},
      {"compound": "CCOc1ccccc1Nc1nnc(SCC(=O)NC(=O)c2cccn2C)s1", "Potency": "inconclusive: 20 µM [inhibitor, single point]"},
      {"compound": "COc1ccc(CCNC(=O)c2oc3ccc(S(=O)(=O)N4CCOCC4)cc3c2C)cc1OC", "Potency": "inconclusive: 31.6 µM [activator, single point]"},
      {"compound": "COc1cc2c(cc1NC(=O)COC(=O)[C@@H](NC(=O)c1ccccc1F)C(C)C)oc1ccccc12", "Potency": "inconclusive: 31.6 µM [inhibitor, single point]"},
      {"compound": "CCc1ccccc1N(c1nc(-c2ccc(OC)c(OC)c2)no1)c1nc(-c2ccc(OC)c(OC)c2)no1", "max response, negative = inhibition": "inactive: 0.589%"},
      {"compound": "Cc1nc(NC2CCCCC2)c2nc(-c3ccccc3)n(CCN(C)C)c2n1", "max response, negative = inhibition": "inactive: -1.07%"},
      {"compound": "CCCOn1c(OCC(C)C)nc2ccccc2c1=O", "Potency": "inconclusive: 6.31 µM [inhibitor, partial curve, poor fit]"},
      {"compound": "Cc1ccc2c(=O)cc(C(=O)Nc3c(C(=O)c4ccccc4)oc4ccccc34)oc2c1C", "max response, negative = inhibition": "inactive: -6.87%"},
      {"compound": "COC(=O)c1ccc(N2Cc3ccccc3/C2=N\\C(=O)Nc2ccccc2)cc1", "Potency": "inconclusive: 39.8 µM [activator, single point]"},
      {"compound": "Cc1ccc(CSc2nc3c(c(SCC(=O)O)n2)CCCC3)cc1", "Potency": "inconclusive: 39.8 µM [activator, single point]"},
      {"compound": "CC(C)(C)OC(=O)N1CCC(c2c(C(=O)NCc3ccccn3)cnn2-c2ccc(F)cc2)CC1", "Potency": "inconclusive: 25.1 µM [activator, single point]"},
      {"compound": "CCOc1ccc(NC(=O)Cn2cnc3c(oc4ccccc43)c2=O)cc1", "Potency": "inconclusive: 39.8 µM [activator, single point]"},
      {"compound": "COc1ccc(-n2nnnc2SCC(=O)c2ccc3c(c2)OCCO3)c(OC)c1", "Potency": "inconclusive: 39.8 µM [inhibitor, single point]"},
      {"compound": "COc1cccc(NS(=O)(=O)c2cc3c4c(c2)C(C)C(=O)N4CCC3)c1", "note": "(stereo not given)", "max response, negative = inhibition": "inactive: -4.52%"},
      {"compound": "CC(C)CNCCc1ccccn1", "max response, negative = inhibition": "inactive: 7.04%"},
      {"compound": "N#Cc1c(Sc2ncc(C(F)(F)F)cc2Cl)nsc1C/C=N\\OCc1c(F)cccc1Cl", "Potency": "active: 3.98 µM"},
      {"compound": "COc1cc(-c2noc(C3CC(=O)N(c4cc(C)ccc4C)C3)n2)cc(OC)c1OC", "note": "(stereo not given)", "Potency": "inconclusive: 31.6 µM [activator, single point]"},
      {"compound": "C[N+](C)(C)c1ccc([C@H](N)C(=O)O)cc1", "max response, negative = inhibition": "inactive: 0.111%"},
      {"compound": "CCc1ccc(Oc2coc3cc(OCC(=O)Nc4cc(C)ccc4C)ccc3c2=O)cc1", "Potency": "active: 25.1 µM"},
      {"compound": "COc1ccc(CNC(=O)C2CCN(S(=O)(=O)c3ccc4nc5c(c(C(=O)O)c4c3)CC(C)CC5)CC2)cc1", "note": "(stereo not given)", "Potency": "inconclusive: 31.6 µM [activator, single point]"},
      {"compound": "Cc1nc(Nc2ccccc2)c2nc(-c3ccccc3)n(CCN3CCOCC3)c2n1", "Potency": "inconclusive: 31.6 µM [activator, single point]"},
      {"compound": "Cc1ccnc(SCC(=O)Nc2oc(-c3ccccc3)c(-c3ccccc3)c2C#N)n1", "Potency": "inconclusive: 31.6 µM [inhibitor, partial curve]"},
      {"compound": "CCOC(=O)c1cc(-c2ccccc2)n(CCCC(=O)Nc2ccc(C)cc2Cl)c1C", "max response, negative = inhibition": "inactive: 0.123%"},
      {"compound": "COCC(C)n1c(C)cc(C(=O)COC(=O)c2oc3ccccc3c2C)c1C", "note": "(stereo not given)", "Potency": "inconclusive: 31.6 µM [activator, single point]"},
      {"compound": "C/C(=N\\NC(=O)c1ccc(Cn2cc(Br)cn2)o1)c1cccc(NC(=O)C(C)(C)C)c1", "Potency": "inconclusive: 31.6 µM [activator, single point]"},
      {"compound": "CCn1cc(C(=O)NCc2ccccc2OC)c(=O)c2cc(S(=O)(=O)N3CCCCCC3)ccc21", "Potency": "inconclusive: 15.8 µM [activator, partial curve]"},
      {"compound": "CCc1nn2c(=O)cc(COC(=O)C3CCCCC3)nc2s1", "max response, negative = inhibition": "inactive: -9.93%"},
      {"compound": "CC(=O)Nc1ccc(NC(=O)c2c(C)nn(-c3ccccc3)c2-n2cccc2)cc1", "Potency": "inconclusive: 39.8 µM [activator, single point]"},
      {"compound": "CCC1=Nc2cc(C(=O)NCCCOC(C)C)ccc2Sc2ccccc21", "Potency": "inconclusive: 39.8 µM [activator, single point]"},
      {"compound": "CCOP(=O)(OCC)c1nc(-c2cccc3ccccc23)oc1NCc1ccccc1", "Potency": "inconclusive: 31.6 µM [activator, single point]"}
    ]}
  ]
}
